≈ marks a conversion by molar mass, not a printed value. Where two headings read alike, the source gives them in different places.
Tests used:
[1] = tested on: Candida albicans (isolate #5); conditions: clinical isolate #5; 1 hour 37° C. in 10 mM NaCl/50 mM MOPS, pH 7.2, then YPD 24 hours 30° C.
[2] = tested on: Candida albicans (isolate #77); conditions: clinical isolate #77; 1 hour 37° C. in 10 mM NaCl/50 mM MOPS, pH 7.2, then YPD 24 hours 30° C.
[3] = tested on: Candida albicans (isolate #4); conditions: clinical isolate #4; 1 hour 37° C. in 10 mM NaCl/50 mM MOPS, pH 7.2, then YPD 24 hours 30° C.
[4] = tested on: Candida albicans (isolate #77); test: microbe, parasite or virus in culture; conditions: pH 7.2
[5] = tested on: Candida albicans (isolate #98); test: microbe, parasite or virus in culture; conditions: pH 7.2
[6] = tested on: Candida albicans (isolate #11); test: microbe, parasite or virus in culture; conditions: pH 7.2
[7] = tested on: Candida albicans (isolate #28); test: microbe, parasite or virus in culture; conditions: pH 7.2
[8] = tested on: Primary human neonatal foreskin epithelial cells; conditions: 50 μM, 18 and 36 hours
[9] = tested on: Candida albicans (isolate #4); test: microbe, parasite or virus in culture; conditions: pH 7.2
phosphorylated ERK 1, 2 = conditions: 50 μM, primary human foreskin epithelial cells
[10] = tested on: Candida albicans (isolate #5); test: microbe, parasite or virus in culture; conditions: pH 7.2
[11] = tested on: Candida albicans (isolate #99); test: microbe, parasite or virus in culture; conditions: pH 7.2

Structure (SMILES) | MIC [1] [µM] | MIC [2] [µM] | MIC [3] [µM] | MIC [4] [µM] | MIC [5] [µM] | MIC [6] [µM] | MIC [7] [µM] | cell morphology after treatment [8] | MIC [9] [µM] | ERK 1, 2 activation compared to control (phosphorylated ERK 1, 2) | MIC [10] [µM] | MIC [11] [µM]
C[C@H](NC(=O)[C@H](Cc1c[nH]cn1)NC(=O)[C@H](CO)NC(=O)[C@@H](N)CC(=O)O)C(=O)N[C@@H](CCCCN)C(=O)N[C@@H](CCCNC(=N)N)C(=O)N[C@@H](Cc1c[nH]cn1)C(=O)N[C@@H](Cc1c[nH]cn1)C(=O)NCC(=O)N[C@@H](Cc1ccc(O)cc1)C(=O)N[C@@H](CCCCN)C(=O)N[C@@H](CCCNC(=N)N)C(=O)N[C@@H](CCCCN)C(=O)N[C@@H](Cc1ccccc1)C(=O)N[C@@H](Cc1c[nH]cn1)C(=O)N[C@@H](CCC(=O)O)C(=O)N[C@@H](CCCCN)C(=O)N[C@@H](Cc1c[nH]cn1)C(=O)N[C@@H](Cc1c[nH]cn1)C(=O)N[C@@H](CO)C(=O)N[C@@H](Cc1c[nH]cn1)C(=O)N[C@@H](CCCNC(=N)N)C(=O)NCC(=O)N[C@@H](Cc1ccc(O)cc1)C(=O)O [H5] | >350 | >350 | >350 | – | – | – | – | – | – | – | – | –
CC(=O)N1CCN(c2ccc(OCC3COC(Cn4ccnc4)(c4ccc(Cl)cc4Cl)O3)cc2)CC1 (stereo not drawn) [KETO, Ketoconazole] | – | – | – | ≥ 9.41 | 6.2 (≈ 3.29 µg/mL) | 3.4 (≈ 1.81 µg/mL) | ≥ 9.41 | morphologically normal except when treated with ketoconazole | ≥ 9.41 | Significant inhibition of ERK 1, 2 activation | ≥ 9.41 | –
CCC(C)n1ncn(-c2ccc(N3CCN(c4ccc(OCC5COC(Cn6cncn6)(c6ccc(Cl)cc6Cl)O5)cc4)CC3)cc2)c1=O (stereo not drawn) [ITRA, Itraconazole] | – | – | – | ≥ 7.09 | ≥ 7.09 | 5.5 (≈ 3.88 µg/mL) | ≥ 7.09 | – | ≥ 7.09 | – | ≥ 7.09 | ≥ 7.09
OC(Cn1cncn1)(Cn1cncn1)c1ccc(F)cc1F [FLU, Fluconazole] | – | – | – | ≥ 97.9 | ≥ 97.9 | ≥ 97.9 | ≥ 97.9 | – | ≥ 97.9 | – | ≥ 97.9 | ≥ 97.9
C[C@@H]1[C@H](O)[C@@H](C)/C=C/C=C/C=C/C=C/C=C/C=C/C=C/[C@H](O[C@@H]2O[C@H](C)[C@@H](O)[C@H](N)[C@@H]2O)C[C@@H]2O[C@](O)(C[C@@H](O)C[C@@H](O)[C@H](O)CC[C@@H](O)C[C@@H](O)CC(=O)O[C@H]1C)C[C@H](O)[C@H]2C(=O)O [AMP-b, Amphoteracin-h] | 3.2 (≈ 2.96 µg/mL) | – | 4.5 (≈ 4.16 µg/mL) | – | – | – | – | – | – | – | – | –

From patent US20100173833A1, “METHODS AND COMPOSITION FOR USE OF CYCLIC ANALOGUES OF HISTATIN” (priority 2007, published 2010)
